Measured values published in PubChem BioAssay AID488969 (Vanderbilt High Throughput Screening Facility, 2010).
Whole data set: some 110,000 compounds, median “z-score” near -0.1, cut for the highest 2% near 2. The list shows a part of the results.

Target: Metabotropic glutamate receptor 8 (Rattus norvegicus) (UniProt P70579)
Assay: mGluR8 Gi/Go-coupled signaling modulation – cell-based, rat, thallium flux, HTS, primary screen (AID 488969)
Settings: HEK293 rat mGluR8, GIRK (G protein-gated inwardly rectifying potassium channel) thallium flux, FluoZin2; at 10 µM; stronger effect = higher value; submaximal glutamate (EC20) added with thallium

UniProt P70579, sequence (P70579 whole entry, looked up): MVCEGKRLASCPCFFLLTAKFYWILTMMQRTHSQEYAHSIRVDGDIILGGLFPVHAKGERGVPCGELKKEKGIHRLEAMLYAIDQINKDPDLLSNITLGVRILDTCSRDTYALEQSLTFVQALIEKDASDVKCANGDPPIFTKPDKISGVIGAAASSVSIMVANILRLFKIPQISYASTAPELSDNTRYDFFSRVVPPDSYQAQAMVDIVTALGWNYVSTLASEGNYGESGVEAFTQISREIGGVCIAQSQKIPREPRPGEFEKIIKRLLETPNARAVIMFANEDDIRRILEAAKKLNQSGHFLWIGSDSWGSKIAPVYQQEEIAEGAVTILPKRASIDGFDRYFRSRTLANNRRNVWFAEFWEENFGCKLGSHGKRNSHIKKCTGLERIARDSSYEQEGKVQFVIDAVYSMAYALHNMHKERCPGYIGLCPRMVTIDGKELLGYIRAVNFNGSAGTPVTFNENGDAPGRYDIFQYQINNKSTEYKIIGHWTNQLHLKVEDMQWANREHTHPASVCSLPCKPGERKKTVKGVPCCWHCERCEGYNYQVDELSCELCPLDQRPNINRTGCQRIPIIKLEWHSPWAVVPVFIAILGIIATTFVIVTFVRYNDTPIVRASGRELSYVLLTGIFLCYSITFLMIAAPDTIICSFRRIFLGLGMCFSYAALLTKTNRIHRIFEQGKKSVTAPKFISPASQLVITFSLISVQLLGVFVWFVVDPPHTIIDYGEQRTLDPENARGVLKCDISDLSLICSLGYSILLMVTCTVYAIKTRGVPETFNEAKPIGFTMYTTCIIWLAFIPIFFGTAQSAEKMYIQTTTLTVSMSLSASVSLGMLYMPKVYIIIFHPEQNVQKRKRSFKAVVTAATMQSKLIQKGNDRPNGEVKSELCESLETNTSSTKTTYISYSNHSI

| SMILES | z-score |
| --- | --- |
| CC(CCc1ccccc1)NC(=O)COC(=O)C1=COCCO1 (stereo not given) | 0.664 |
| CN(CC(=O)Nc1ccccc1C(F)(F)F)C(=O)COc1ncnc2sccc12 | 1.2 |
| Cc1nn(-c2ccccc2)c(C)c1C(=O)OCC(=O)N1CC(=O)Nc2ccccc21 | -0.579 |
| C=CCn1c(=N)n(CC(O)COc2ccc(OC)cc2)c2ccccc21 (stereo not given) | -1.16 |
| C[C@H](N)c1nnc(SCC(=O)N(C)C)o1 | -0.0515 |
| CC(=O)C(C)Oc1ccc2c3c(c(=O)oc2c1)CCCC3 (stereo not given) | 0.0817 |
| CC(C(=O)N1CCCc2c1c(=O)oc1ccc(O)cc21)N1CCc2ccccc2C1 (stereo not given) | 0.434 |
| CCCCCn1c(CN2CCN(C)CC2)nc2c1c(=O)n(C)c(=O)n2C | -0.241 |
| CCc1c(C)c2ccc(OCC(=O)OC(C)C)c(C)c2oc1=O | 0.0796 |
| c1cncc(CNc2cccc(-c3nc4ccccc4[nH]3)c2)c1 | -0.311 |
| CCOC(=O)c1ccc(NC(=O)c2nn(CC)cc2Br)cc1 | 0.192 |
| CCN1CCCC1CNC(=O)C(=O)Nc1cccc(OC)c1 (stereo not given) | 2.04 |
| O=S(=O)(Nc1ccc(Cc2ccncc2)cc1)c1cccs1 | -0.0895 |
| COc1ccc(C(=O)CSc2nnc(C3CC3)n2N)cc1 | 0.0634 |
| Cc1ccc(N(CC(=O)NC2CCCCCC2)S(=O)(=O)c2c(C)nn(C)c2C)cc1 | -0.41 |
| C=C(CCC(=O)c1ccccc1)C(=O)c1ccccc1 | -0.396 |
| Cc1nc(C(=O)Nc2cccc(Cl)c2Cl)nn1-c1cc(OC(C)C)c(Cl)cc1Cl | -0.108 |
| Cc1ccc(N=Nc2c(N)n(-c3ccccc3)[nH]c2=O)cc1 | -0.102 |
| O=S(=O)(c1ccccc1)n1nc(-c2ccccc2)nc1NCc1ccco1 | -0.0427 |
| COc1ccc(/C(O)=C2/C(=O)C(=O)N(CCCC(=O)O)C2c2ccc(OC)c(OC)c2)cc1 (stereo not given) | 0.313 |
| CCOC(=O)c1sc(NC(=O)c2ccc(Cl)s2)cc1C | -0.211 |
| CN1CCN(/C=C2\SC(=S)NC2=O)CC1 | -0.54 |
| O=C(Nc1ccc2c(c1)nc1n2CCSC1)c1ccco1 | -0.685 |
| CC(C)C(=O)Nc1cccc(NC(=O)c2ccc(Cl)cc2Cl)c1 | -0.304 |

| SMILES | z-score |
| --- | --- |
| O=C(OC(C(=O)NC1CCCCC1)c1ccccc1)c1ccco1 (stereo not given) | -0.0658 |
| CC(=O)Nc1ccc(SCC(=O)c2cc(C)n(CC(F)(F)F)c2C)cc1 | 0.0826 |
| CS(=O)(=O)c1ccc(Cl)c(NC(=O)C2CC(=O)N(Cc3ccccc3)C2)c1 (stereo not given) | 0.229 |
| CCOC(=O)c1ccc(NC(=O)c2ccc(C)c(S(=O)(=O)N3CCOCC3)c2)cc1 | -0.00222 |
| CC1CCN(C(=O)C2CCN(C(=O)c3cc4sccc4n3Cc3ccc(F)cc3)CC2)CC1 | -1.14 |
| CCCCCOc1ccc(C(=O)NCC(=O)NCC(=O)OCC)cc1 | -0.24 |
| CCn1c(CNC(=O)Cc2ccc(OC)cc2)nnc1SCC(=O)c1ccc(Br)cc1 | -0.124 |
| COCCn1c(C)cc2c(c1=O)C(c1ccco1)C(C#N)=C(N)O2 (stereo not given) | 0.0712 |
| O=C(CSc1nc(-c2ccc(F)cc2)cs1)NC(=O)NCc1ccco1 | -0.459 |
| CC1CC(C)CN(CCCNC(=O)c2ccc3c(c2)NC(=O)C(N2CCCCC2)S3)C1 (stereo not given) | 2.18 |
| O=C(c1cccn2c(=O)c3ccc(Cl)cc3nc12)N1CCN(Cc2ccc3c(c2)OCO3)CC1 | 0.29 |
| CNc1nc2c3ccccc3n(C(C)=O)c2s1 | 0.0868 |
| O=C(CCCO)c1ccc2c(c1)OCCO2 | 0.507 |
| O=C1SCC(c2ccc(Cl)cc2Cl)=NN1Cc1nnc(-c2ccccc2)o1 | 0.0379 |
| COc1ccc(S(=O)(=O)N2CCc3ccccc32)cc1C(=O)OCc1nnc(-c2ccccc2)o1 | -1.3 |
| Cc1ccc(-c2nnn(CCOc3cccc(Br)c3)n2)cc1 | -0.298 |
| CC(C)N(Cc1nc(-c2ccccc2)no1)C(=O)c1ccc(Cl)cc1 | -0.228 |
| CC(C)(C)C1CCC(C(=O)Nc2ccccc2)CC1 (stereo not given) | 0.307 |
| Cc1cc(C)c(C(=O)COc2cccnc2[N+](=O)[O-])cc1C | -0.277 |
| CCCC1(C(=O)O)NC(c2ccccc2O)C2C(=O)N(Cc3ccccc3)C(=O)C21 (stereo not given) | 0.746 |
| COC(=O)c1ccc(NC(=O)COC(=O)CSc2nc(C)cc(C)n2)cc1 | -0.177 |
| COc1ccc(/C(N)=N/OC(=O)c2ccc(C)c([N+](=O)[O-])c2)cc1 | -0.11 |
| O=C(CSc1ncnc2nc[nH]c12)N1CCN(c2ccc(Cl)cc2)CC1 | -0.192 |
| CCc1ccc(NC(=O)CSc2nnc(CNC(=O)c3c(F)cccc3Cl)o2)cc1 | -0.26 |

| SMILES | z-score |
| --- | --- |
| CCOC(=O)c1c(N2C(=O)Nc3cc(Cl)c(Cl)cc3N2O)sc2c1CCCCC2 | -0.911 |
| Cc1cc2cc(CNC(=O)Nc3cccc(Cl)c3)ccc2n1C | -0.422 |
| C/C(=N\NC(=O)c1cc2c(s1)CCC(C)C2)c1ccncc1 (stereo not given) | -0.506 |
| COc1ccc(Cn2cnc3c(NS(C)(=O)=O)c(C)c(C)cc32)cc1 | 0.215 |
| COc1cc(C2N(c3cc(C)on3)C(=O)C3CCCN32)cc(OC)c1OC (stereo not given) | 0.437 |
| CCCc1nc(N)c(C#N)c(N)c1C#N | -0.0915 |
| COc1cc(C2C(C#N)=C(N)Oc3c2oc(CO)cc3=O)ccc1OC(C)C (stereo not given) | -0.026 |
| Cc1ccc(C(=O)N2CCN(c3ncccn3)CC2)o1 | 0.714 |
| Cc1cc([N+](=O)[O-])nn1CC(=O)NNC(=S)Nc1ccc(F)cc1 | -0.206 |
| O=S(=O)(NCc1ccc2c(c1)OCO2)c1ccc2oc3ccccc3c2c1 | -0.125 |
| CC(C)Oc1ccc(Cc2cnc(N)nc2N)cc1 | 1.03 |
| Cc1ccc(C(=O)n2nnc3ccccc32)cc1 | 0.00893 |
| Cc1ccc(OCc2nnc(SCc3ccc(C#N)cc3)n2-c2ccc(C)cc2)cc1 | 0.69 |
| CCC(C)[C@H](NC(=O)N1CCCC1)C(=O)O (stereo not given in full) | 0.0774 |
| Cc1cc(C)n(-c2ncnc3sc(C)c(C)c23)n1 | -0.0949 |
| CC(C)Cc1ccc(C(C)C(=O)Nc2nccs2)cc1 (stereo not given) | -0.384 |
| COc1ccc(CCNC(=O)CCCn2c(=O)[nH]c3cc(OC)c(OC)cc3c2=O)cc1OC | 0.13 |
| Cc1ccc(Cn2cnc3ccccc32)cc1 | 0.283 |
| Cc1ccsc1/C=N/N1CCN(c2ccccc2)CC1 | -0.161 |
| Cc1ccc(N(CC(=O)N2CCN(c3ccc(F)cc3)CC2)S(=O)(=O)c2c(C)nn(C)c2C)cc1 | -0.466 |
| CC(C)(C)c1ccc(OCC(=O)N/N=C/c2ccsc2)cc1 | 0.2 |
| CCCc1ccc(OCc2ccc(C(=O)N3CCN(c4ccccn4)CC3)o2)c(OC)c1 | -0.628 |
